Measurements: publication PMC4336329 (PLoS ONE, 2015)
About 14,000 (4.5%) of roughly 310,000 compounds showed an effect of 50% or more. The effect is printed as a negative number. The list shows a part of the results.

What follows are molecules tested against human ether-à-go-go-related gene (hERG) potassium channel (human, UniProt Q12809) (assay: primary screen, population patch clamp on CHO cells stably expressing hERG).
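Also: peak tail current of the secondary pulse compared with the same well before compound.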

Sequence of human ether-à-go-go-related gene (hERG) potassium channel (Q12809 whole entry, looked up): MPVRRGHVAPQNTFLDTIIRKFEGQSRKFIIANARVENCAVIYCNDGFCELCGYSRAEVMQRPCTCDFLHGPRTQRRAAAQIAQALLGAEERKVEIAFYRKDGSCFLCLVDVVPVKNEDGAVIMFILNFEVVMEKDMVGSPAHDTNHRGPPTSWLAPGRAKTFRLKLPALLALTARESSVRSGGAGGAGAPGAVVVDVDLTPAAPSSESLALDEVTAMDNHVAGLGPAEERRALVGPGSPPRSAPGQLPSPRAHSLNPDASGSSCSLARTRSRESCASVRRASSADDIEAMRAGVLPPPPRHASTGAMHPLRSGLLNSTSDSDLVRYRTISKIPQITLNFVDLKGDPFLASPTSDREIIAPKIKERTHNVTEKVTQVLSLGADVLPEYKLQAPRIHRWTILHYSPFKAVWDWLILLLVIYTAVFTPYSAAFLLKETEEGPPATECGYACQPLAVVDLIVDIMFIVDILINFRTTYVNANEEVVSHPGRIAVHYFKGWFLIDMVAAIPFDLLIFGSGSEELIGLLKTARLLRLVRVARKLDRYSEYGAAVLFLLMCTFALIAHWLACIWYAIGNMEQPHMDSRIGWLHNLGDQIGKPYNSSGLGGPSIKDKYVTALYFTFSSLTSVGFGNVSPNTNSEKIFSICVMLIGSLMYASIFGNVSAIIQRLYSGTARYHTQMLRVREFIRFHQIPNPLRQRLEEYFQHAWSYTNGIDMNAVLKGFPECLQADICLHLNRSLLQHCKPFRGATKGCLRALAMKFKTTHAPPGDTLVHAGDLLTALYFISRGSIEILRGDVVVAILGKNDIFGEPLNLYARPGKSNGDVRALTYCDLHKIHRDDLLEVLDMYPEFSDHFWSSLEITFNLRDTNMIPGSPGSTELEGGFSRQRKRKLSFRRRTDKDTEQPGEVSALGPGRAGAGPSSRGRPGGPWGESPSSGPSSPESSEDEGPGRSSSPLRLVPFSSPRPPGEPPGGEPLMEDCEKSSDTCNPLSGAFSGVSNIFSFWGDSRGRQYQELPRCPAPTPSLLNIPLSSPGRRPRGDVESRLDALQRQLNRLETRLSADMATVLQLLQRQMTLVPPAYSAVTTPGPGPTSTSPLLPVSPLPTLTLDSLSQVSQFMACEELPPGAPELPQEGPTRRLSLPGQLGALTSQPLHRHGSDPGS

Row | SMILES | hERG current change (%, negative = inhibition) at 10uM [%]
1 | COC(=O)c1ccc(C)c(NS(=O)(=O)c2cn(C)nc2C)c1 | 4.54
2 | CCc1nc(SCC(=O)NNC(=O)C(C)C)c2ccccc2n1 | 15
3 | CC(C)NC(=O)Cn1c(=O)cnc2ccccc21 | -2.78
4 | Cc1cc(=O)n2c(-c3ccccc3C)n[nH]c2n1 | -15.3
5 | COc1ccc(/C=N/Nc2ncc(Br)cn2)c(OC)c1 | 27.2
6 | Cc1cc(C)n(CC2CC(=O)N(c3ccc(Cl)c(Cl)c3)C2=O)n1 (centres unmarked) | -11.4
7 | COc1ccc(S(=O)(=O)Nc2ccc3c(c2)N(C(C)=O)CCC3)cc1 | -1.26
8 | O=C(c1ccc(Cl)cc1)N(c1ccccn1)C1CCCCC1 | 7.05
9 | Cc1ccc(S(=O)(=O)N2CCN(C(=O)COC(=O)COc3cccc4c3OC(C)(C)C4)CC2)cc1 | -1.97
10 | CCNC(=S)N1CCCCC1CO (centres unmarked) | 3.85
11 | CN(C)c1ccc(C(=O)c2ccccc2C(=O)O)cc1[N+](=O)[O-] | 3.29
12 | Cc1noc(C)c1C(=O)Nc1ccccn1 | -8.39
13 | Fc1ccc(-c2nnsc2Sc2ccccn2)cc1 | 13.5
14 | CC1(C)CC(=O)C2=C(C1)NCN(Cc1ccc3c(c1)OCO3)C2 | -1.04
15 | COc1cc(CNc2ccccc2SC)ccc1O | 12.8
16 | Cc1ccc2nc(-c3ccc(NS(C)(=O)=O)cc3)cc(-c3ccccc3)c2c1 | 9.27
17 | COc1cc(C(C)=O)ccc1Oc1ncnc2c1cnn2-c1ccc(C)c(C)c1 | 7.86
18 | CCOC(=O)c1cnn(-c2cc(Oc3ccccc3C)ncn2)c1N | 14.4
19 | CCOc1ccccc1Oc1coc2cc(OC(=O)c3ccco3)ccc2c1=O | -10.7
20 | O=C(Nc1ccc(Cl)cc1)c1ccsn1 | 7.58
21 | Cl.NC(=O)C1CCN(C(c2ccccc2F)c2nnnn2Cc2ccco2)CC1 (centres unmarked) | 11.1
22 | CSc1sc(C(=O)Nc2ccc(F)cc2F)c2c1C=CCC2 | 1.63
23 | O=C(NCCc1ccccc1)NC1CCCCC1 | 13.3

Row | SMILES | hERG current change (%, negative = inhibition) at 10uM [%]
24 | Cc1ccc(C)c(N2CCN(C(=O)CCNS(=O)(=O)c3ccc4c(c3)oc(=O)n4C)CC2)c1 | -27.2
25 | CCCNC(=O)NC(=O)c1cnccc1C(F)(F)F | 13.4
26 | CCN(CC)S(=O)(=O)c1cccc(C(=O)OCC(=O)c2ccc3c(c2)NC(=O)CO3)c1 | -15.3
27 | CCN1C(=S)N[C@@H](CCc2ccccc2)[C@H](C(=O)OC)[C@H]1C | 0.0847
28 | Cc1n[nH]c(=S)n(NC(=O)CC(=O)Nn2c(=S)[nH]nc(C)c2=O)c1=O | 45.4
29 | O=C(NCCCO)NC12CC3CC(CC(C3)C1)C2 | -9.93
30 | COc1ccc(C(=O)NCc2ccccn2)cc1[N+](=O)[O-] | -0.439
31 | O=C(N/N=C/c1cc([N+](=O)[O-])ccc1O)/C(=C\c1cccs1)NC(=O)c1ccccc1 | -41.2
32 | CNCCc1ccc(OC)c(OC)c1 | 19.4
33 | Cc1ccc(-n2cc(CNCCCn3cccn3)c(-c3cccc(C)c3)n2)cc1 | -71.6
34 | CCNC(=S)NNC(=O)c1csc(CC)c1 | -4.58
35 | O=S(=O)(c1cc(Cl)ccc1Cl)N1CCC2(CC1)OCCO2 | -42.1
36 | COc1ccc(N2CCN(C(CNC(=O)C(=O)NCc3ccc4c(c3)OCO4)c3ccco3)CC2)cc1 (centres unmarked) | -0.557
37 | COc1ccc2c(c1OC)CCC2=O | -15.5
38 | CCN(CC)S(=O)(=O)c1cccc(C(=O)N/N=C/c2ccc([N+](=O)[O-])o2)c1 | -37
39 | Cc1ccc(Cl)cc1NS(=O)(=O)c1cn(C)nc1C | 2
40 | Cc1ccc(-c2nc(SCC(=O)Nc3ccccc3OC(F)F)c3c(C)c(C(=O)O)sc3n2)cc1 | 11.2
41 | COc1ccc(C(=O)NC(=S)NCCO)cc1Br | 4.48
42 | C=Cn1cc[n+](CC(=O)c2ccc(Br)s2)c1.[Br-] | 9.47
43 | Cc1ccc(NC(=O)CN2CCC(NC(=O)C3CCCCC3)CC2)c(Br)c1 | -11.2
44 | CCN(CC(=O)NCCc1ccccc1)S(=O)(=O)c1ccccc1 | -13.3
45 | CCOC(=O)C1=C(C)N=C2SC(C)C(=O)N2C1c1ccc(OCC)c(OCC)c1 (centres unmarked) | 1.51
46 | CCN(CC)CCCNC(=O)CN1N=C(c2ccc(OC)cc2)CCC1=O | 14.5

Row | SMILES | hERG current change (%, negative = inhibition) at 10uM [%]
47 | NS(=O)(=O)c1ccc(CNC(=O)NC2(c3ccccc3)CC2)cc1 | 9.76
48 | Cc1noc(C)c1CN1C(=O)NC2(CCCCCCC2)C1=O | 0.244
49 | NC(=O)c1ccc(Nc2ccc([N+](=O)[O-])cc2[N+](=O)[O-])cc1 | -39.2
50 | COc1ccccc1CCC(=O)OCC(=O)Nc1ccc(S(N)(=O)=O)cc1 | 15.4
51 | O=C(NCc1ncc(C(F)(F)F)cc1Cl)Nc1ccccc1 | 3.57
52 | O=C(CN1CCOCC1)N/N=C/c1ccc(-c2ccc(Br)cc2)o1 | -67.1
53 | CC1CC2(CCCC2)Nc2ccc(F)cc21.Cl (centres unmarked) | 13.2
54 | CCCN1CCC(NC(=O)C2CCCCC2C(=O)O)CC1 (centres unmarked) | -1.65
55 | Cc1onc(-c2c(F)cccc2Cl)c1C(=O)OCC(=O)NC1CC1 | 1.98
56 | Cn1cc(S(=O)(=O)Nc2cccc3ccccc23)c(=O)n(C)c1=O | -39.1
57 | Cc1ccc(S(=O)(=O)NCC(=O)N2CCCCC2)cc1 | 12.5
58 | Cc1cccc(/C=C/C(=O)c2ccc([N+](=O)[O-])o2)c1 | 12.8
59 | CCN(CC)P(=O)(c1ccccc1)c1c(C)nc2ccccn12 (centres unmarked) | -3.24
60 | O=C(CSc1nnc(-c2ccco2)n1Cc1ccccc1)OC1CCCCC1 | -92.1
61 | COc1ccc(NC(=O)CSc2ccccn2)cc1 | 21.5
62 | CCC(CC)=N/N=C/c1c(O)n(CC)c2cc(C3=NNC(=O)CC3)ccc12 | 15.5
63 | Cc1cc(NC(=O)c2cccc(S(=O)(=O)N3c4ccccc4CC3C)c2)no1 (centres unmarked) | -7.3
64 | CCOc1ccc(S(=O)(=O)N2CCN(Cc3ccccc3)CC2)cc1 | 1.61
65 | CN(C)/C=C1\C(=O)N(c2ccc(Oc3ccccc3)cc2)CS1=O (centres unmarked) | -14.4
66 | COc1ccc(CCNC(=O)Cn2ccc3cc(S(=O)(=O)N4CCCC4)ccc32)cc1OC | -42.9
67 | COC(=O)NCC(c1cccnc1)N1CCN(c2ccccc2F)CC1 (centres unmarked) | 4.3
68 | O=C(NCCN1CCN(Cc2ccccc2)CC1)Nc1cc(Cl)cc(Cl)c1 | -75.2
69 | O=C1CCC(C(=O)OCc2c(Cl)cccc2Cl)N1 (centres unmarked) | 6.58

Row | SMILES | hERG current change (%, negative = inhibition) at 10uM [%]
70 | COc1cccc(C(=O)N2CCOCC2)c1OC | 16.8
71 | O=C(NNS(=O)(=O)c1ccc([N+](=O)[O-])cc1)c1cnn(-c2ccccc2)c1-n1cccc1 | 10.7
72 | CCc1ccccc1NS(=O)(=O)c1ccc2[nH]cc(C(=O)NCC3CCCO3)c(=O)c2c1 (centres unmarked) | 14.3
73 | Cc1nc(C)n(C(C)CNS(=O)(=O)c2ccc(Cl)cc2)n1 (centres unmarked) | 13.9
74 | Cc1cc(N2CCN(c3cccc(C)c3C)CC2)nc(-c2ccccc2)n1 | -10.1
75 | CN(C)N1C(N)=C(C#N)C(c2ccsc2)C2=C1CC(C)(C)CC2=O (centres unmarked) | -3.13
76 | CCCC(=O)NC(=S)Nc1ccc(N2CCN(C(=O)c3cccs3)CC2)cc1 | -4.09
77 | COc1ccc(C(=O)c2sc3nc(C)cc(-c4cccs4)c3c2N)cc1OC | -3.33
78 | COC(=O)C1CN(C#N)N(c2ccc(Cl)cc2)C12c1ccccc1-c1ccccc12 (centres unmarked) | 6.03
79 | COC(=O)Nc1nn(Cc2ccccc2F)cc1Br | 17.6
80 | CCc1ccc(CN(C)C(=O)c2cc(COc3ccc(-n4cncn4)cc3)on2)cc1 | -42.5
81 | CC/C(=N\NC(=S)Nc1cc(C)ccc1C)c1ccc(OC(F)F)cc1 | -0.587
82 | NC(=O)c1cccc(NC(=O)Nc2ccc(Cl)cc2)c1 | 20.2
83 | CCC(C)c1ccccc1NC(=O)c1cccnc1 (centres unmarked) | 12.5
84 | O=C(/C=C/c1ccc(OC(F)F)cc1)OCC(=O)N1CCC(c2ccccc2)=N1 | 17.2
85 | CCn1c(C)[n+](CC(O)COCC2CC=CCC2)c2ccccc21.[I-] (centres unmarked) | 2.22
86 | COc1cccc2cc(-c3nnc(SCC(=O)Nc4nc(C)cs4)n3C)oc12 | 6.56
87 | O=C(c1ccccc1)N1CCCC(C(=O)N2CCCCC2)C1 (centres unmarked) | 4.5
88 | Cc1cccc(NC(=O)c2cc[n+]([O-])cc2)c1C | 23.6
89 | CCN(CCCNC(=O)Cn1cc2c(n1)CCCC2)c1cccc(C)c1 | -7.68
90 | Cc1ccc(NC(=O)C2=C(C(=O)O)CCCC2)cc1Br | 18
91 | O=C(N/N=C/c1ccc([N+](=O)[O-])cc1)c1[nH]ncc1Br | 12.6
92 | Cc1cc(OCC(=O)Nc2ccccc2F)nc(C(C)C)n1 | 5.67
